Results as given in publication PMC6451091.
Some of the results follow. For part of these data: At the low end of the ranking the order means little. For part of these data: Measured with an extract: partners may take part in the binding.

What follows are sequences tested against PU.1 (IVT) (UniProt P17947) (assay: protein-binding microarray (PBM)). Details: 20 mM HEPES pH 7.9, 100 mM NaCl, 1 mM DTT, 0.2 mg/mL BSA, 0.02% Triton X-100, 2% milk, 0.4 mg/mL salmon testes DNA; 1 h; temperature not stated; high values mean tight binding; double strand, one strand shown; sequences stand for … in GCCTAGCAC…GTGCTAGGTCTTGATTCGCTTGACGCTGCTG.

Row | Sequence | binding signal [z-score]
1 | CGACAGGGGAAGTGCTAAAC | 3.21
2 | CGAAAGGGGAAGTTCTAAAC | 7.34
3 | GAAAGAAGGAAGTGCCAGGC | 4.47
4 | AAAGGGAGGAAGTGGTTGAA | 4.01
5 | AAAAAAAGGAAGTCAAAGTC | 6.75
6 | AAAAGAAGGAAGTGTCCTTC | 5.43
7 | AAAGAGAGGAAGTTCTTGCC | 5.27
8 | TGAAGGAGGAAGTGAGTGGG | 5.14
9 | GCAAACAGGAAGTAGAGGAC | 5.63
10 | TGGAAAGGGAAGTGTTTACT | 3.97
11 | TATATCAGGAAGTGGTTAAA | 3.41
12 | AGAGAGGGGAAGTGTGCTCC | 3.47
13 | GGTCTGAGGAAGTGCACTTT | 3.16
14 | GCTAGGAGGAAGTGACTGCA | 4.61
15 | ACCATAGGGAAGTGGAAACA | 3.88
16 | GGAAAGAGGAAGTGCGAGCA | 7.7
17 | GATAAGAGGAAGTTCTCTGT | 6.77
18 | CAGAAGAGGAAGTCAGGCAG | 5.16
19 | AGCAAGAGGAAGTCAAGTAC | 4.55
20 | TCCTGGGGGAAGTGGTGGTG | 2.52

Row | Sequence | binding signal [z-score]
21 | CAGAAGGGGAAGCGGAGCTG | 2.6
22 | TAGGAGGGGAACTGAATCCA | 1.64
23 | AATAAAAGGAACTGGCTAGA | 2.53
24 | CAAAAAAGGAAGTGCTACCC | 5.46
25 | AGGAACAGGAAGTGAATATA | 5.87
26 | AAAATGGGGAAGTGACTCTC | 7.73
27 | CAAATGAGGAACTGATGCCG | 5.51
28 | AAAAAGAGGAACTGTTGGAG | 7.21
29 | GAAAACAGGAAGTGGGGATG | 7.43
30 | AAAAAGGGGAAGAGCATTGC | 5.21
31 | AGAAAGAGGAAATGAATATA | 5.78
32 | GAAATGAGGAACTGGATCTT | 6.39
33 | ACAAAGAGGAAGTCCCATTT | 7.29
34 | CGAAAGAGGAAGTGCCTACA | 7.86
35 | GAAAAAAGGAACTGCTGAGA | 4.01
36 | ACAAAACGGAACTGTGCCCC | 2.12
37 | GAGAAGGGGAAGTGAGTGCC | 5.61
38 | CTGAAGGGGAAGTGGGCAGA | 4.21
39 | AGAAACAGGAAGTGCTATTA | 7.63
40 | ATGGAGAGGAAGTGTGCTGG | 3.66

The sequences below were run against PU.1 (endogenous, THP-1 nuclear extract) (UniProt P17947) (assay: nuclear extract protein-binding microarray (nextPBM)). Details: 20 mM HEPES pH 7.9, 100 mM NaCl, 1 mM DTT, 0.2 mg/mL BSA, 0.02% Triton X-100, 2% milk, 0.4 mg/mL salmon testes DNA; 1 h; temperature not stated; high values mean tight binding; double strand, one strand shown; sequences stand for … in GCCTAGCAC…GTGCTAGGTCTTGATTCGCTTGACGCTGCTG.

Row | Sequence | binding signal [z-score]
41 | CGACAGGGGAAGTGCTAAAC | 2.84
42 | CGAAAGGGGAAGTTCTAAAC | 7.21
43 | GAAAGAAGGAAGTGCCAGGC | 5.19
44 | AAAGGGAGGAAGTGGTTGAA | 3.45
45 | AAAAAAAGGAAGTCAAAGTC | 5.92
46 | AAAAGAAGGAAGTGTCCTTC | 5.56
47 | AAAGAGAGGAAGTTCTTGCC | 4.41
48 | TGAAGGAGGAAGTGAGTGGG | 5.85
49 | GCAAACAGGAAGTAGAGGAC | 6.18
50 | TGGAAAGGGAAGTGTTTACT | 3.78
51 | TATATCAGGAAGTGGTTAAA | 3.49
52 | AGAGAGGGGAAGTGTGCTCC | 3.2
53 | GGTCTGAGGAAGTGCACTTT | 3.03
54 | GCTAGGAGGAAGTGACTGCA | 5.14
55 | ACCATAGGGAAGTGGAAACA | 3.9
56 | GGAAAGAGGAAGTGCGAGCA | 7.22
57 | GATAAGAGGAAGTTCTCTGT | 6.77
58 | CAGAAGAGGAAGTCAGGCAG | 6.24
59 | AGCAAGAGGAAGTCAAGTAC | 4.98
60 | TCCTGGGGGAAGTGGTGGTG | 2.83
